Results from PubChem BioAssay AID651820 (National Center for Advancing Translational Sciences (NCATS), 2012).
Among all 340,000 compounds or so, about 12,000 (3.5%) were called active. This list was built around the results that the source calls inconclusive (neither active nor inactive); the mix of calls is not that of the screen. The call rests on the fitted dose curve; in most records, active means well fitted inhibition curve with a large enough effect; inconclusive means small, poorly fitted or top-dose-only effect, or another doubt; inactive means no such curve, though single readings can be large or run the other way. Potencies of inconclusive entries are left out as doubtful fits.

Assay: qHTS Assay for Inhibitors of Hepatitis C Virus (HCV)
Settings: Huh7.5.1 HCVcc-Cre (HCVcc is cell-culture hepatitis C virus) infection, luciferase reporter, 44 h; activity change, negative = inhibition: at 41.8 µM (top of the series) unless noted
How it was run: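 Antiviral activity was scored by luciferase reporter output from cells infected with HCVcc-Cre (~0.5 moi) in presence of compound, 44 h infection period, cells seeded 1,000/well 4 h prior.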
On the % scale 0 is the no-effect control and ±100 the full control effect; potency means the concentration at half of the fitted maximal effect; tags describe the fitted curve by direction and shape.

SMILES | Potency | activity change, negative = inhibition
CCOc1ccc(S(=O)(=O)NCc2ccncc2)cc1 | inconclusive [inhibitor, full curve] | –
CC(=O)Nc1cccc(NC(=O)c2ccco2)c1 | inactive | –
Cc1ccccc1S(=O)(=O)N1[C@@H](c2ccc(Cl)cc2)C(C(=O)O)=CC[C@H]1c1ccc(Cl)cc1 | inconclusive [inhibitor, single point] | –
Cc1ccc(NC(=O)c2cc3c(CO)cnc(C)c3oc2=Nc2cccc(C(N)=O)c2)cc1 | inconclusive [inhibitor, full curve] | –
Cc1cc(C)nc(NC(=NCCc2c[nH]c3ccccc23)NC(=O)c2ccco2)n1 | inconclusive [inhibitor, single point] | –
CCCNC(=O)c1ccc2c(=O)c(O)c(-c3ccc(OC)cc3)[nH]c2c1 | inconclusive [inhibitor, partial curve] | –
CCC(COC)Oc1cc(NCc2ccccc2)c2ncn(C(C)C)c2c1 (centres undefined) | active: 11.2 µM | –
C[C@@H]1[C@H]2[C@@H]3CC[C@@H](C3)[C@H]2CN[C@H]1c1cn(Cc2ccccc2)c2ccccc12 | active: 22.4 µM | –
CCOc1ccc(OCC(=O)Nc2ccc(N3CCCCC3)cc2)cc1 | inconclusive [inhibitor, partial curve] | –
Fc1ccc(-n2cc(-c3ccccc3)c3c(N4CCOCC4)ncnc32)cc1 | inconclusive [inhibitor, partial curve] | –
Cc1ccccc1-c1ccc(C(=O)NCc2ccccc2)o1 | – | inactive: -4.01% [at 8.37 µM]
CCN1CCN(c2cc(C)c3cc(NC(=O)c4ccc(Br)o4)ccc3n2)CC1 | inconclusive [inhibitor, partial curve] | –
O=C(/C=C/c1ccc2ccccc2n1)c1cc(Br)ccc1O | inactive | –
CCOC(=O)c1nnn2c1nc(N1CCOCC1)c1ccccc12 | inactive | –
CCN1CCN(CC(=O)N2CCCC(C(=O)c3ccc(Oc4ccccc4)cc3)C2)CC1 (centres undefined) | inconclusive [inhibitor, partial curve, poor fit] | –
O=C(Cn1c(=S)[nH]c2ccccc2c1=O)N1CCN(c2ccccc2)CC1 | inconclusive [inhibitor, full curve, poor fit] | –
Cc1cccc(NC(=O)C2CCCN(S(=O)(=O)c3ccc4[nH]c(=O)ccc4c3)C2)n1 (centres undefined) | inconclusive [inhibitor, full curve] | –
CCCn1nc(C(=O)NNC(=O)Cc2ccc(S(=O)(=O)N3CCOCC3)s2)c2ccccc2c1=O | inconclusive [inhibitor, single point] | –
Cc1ccc(S(=O)(=O)N(CCC(=O)N2CCOCC2)c2ccccc2)cc1 | inactive | –
CCOc1ccc(C(=O)NC(=S)Nc2ccc(NC(=O)C(C)C)cc2)cc1[N+](=O)[O-] | inconclusive [inhibitor, partial curve] | –
CC(=O)Nc1ccc(S(=O)(=O)NC2(C(F)(F)F)NC(=O)N(c3ccc(Cl)cc3)C2=O)cc1 (centres undefined) | inconclusive [inhibitor, single point] | –
C=CCN1C(=O)NC(=O)/C(=C/c2c(CCN(C)C(=O)c3ccccc3)cc3c(c2OC)OCO3)C1=O | inactive | –
COc1ccccc1NC(=S)NC(=O)C1CC1 | inactive | –
CCC1=C(c2cc(OC)c(OC)c(OC)c2)C2(CCCC2)C(=O)O1 | inactive | –
CCc1ccc(-c2nc(NC(=S)NC(=O)c3cccs3)sc2C)cc1 | inactive | –

SMILES | Potency | activity change, negative = inhibition
COc1ccc(N2CCN(C3CCCN(Cc4ccc(F)cc4Cl)C3)CC2)cc1 (centres undefined) | inconclusive [inhibitor, single point] | –
S=C(NCCSCc1ccccc1Cl)Nc1ccccc1 | inconclusive [inhibitor, single point] | –
O=C(Nc1ccc(Br)cn1)c1ccc2nccnc2c1 | inconclusive [inhibitor, partial curve] | –
CCN(C(=O)CN1C(=O)S/C(=C\c2cccc(OC)c2)C1=O)C1CCS(=O)(=O)C1 (centres undefined) | inactive | –
O=C(NC1CCN(CC(=O)N(c2ccccc2)c2ccccc2)CC1)c1ccc([N+](=O)[O-])cc1 | inconclusive [inhibitor, single point] | –
CN1C2CCC1CC(OC(=O)c1cc(Cl)cc(Cl)c1)C2 (centres undefined) | active: 14.1 µM | –
COc1ccc(CC(=O)N2CCN(c3ccccc3F)CC2)cc1OC | active: 11.2 µM | –
Cc1ccc(OCC(=O)NCCCNC(=O)c2ccncc2)cc1 | inactive | –
Cn1c(=N)n(CC(O)c2cccs2)c2ccccc21 (centres undefined) | inactive | –
CCOc1ccc(C2CC(c3ccc(F)cc3)n3ncnc3N2)cc1 (centres undefined) | inactive | –
N#Cc1ccccc1CSc1ccc(-c2nc3ccccc3[nH]2)cn1 | active: 8.91 µM | –
COc1ccc(CNC(=O)CN(C(=O)c2snc(C(N)=O)c2N)c2ccc(F)cc2)cc1 | inconclusive [inhibitor, partial curve] | –
Cc1ccc(OCCn2cccc2/C=C2/C(=O)NC(=O)N(Cc3ccco3)C2=O)cc1 | inactive | –
COCc1c(C(=O)NC2CCCCC2)sc2cccc(F)c12 | inconclusive [inhibitor, single point] | –
Cc1cc(C(=O)Nc2ccccc2)nn1C(C)(C)C | inactive | –
COc1ccccc1Cn1c(C)nnc1-c1cnn(C)c1N | inconclusive [inhibitor, single point] | –
Cc1cc(C(=O)COC(=O)c2ccc(O)cc2O)c(C)n1-c1ccc(OC(F)F)cc1 | active: 10 µM | –
CNCCCOc1cccc(Oc2ccccc2)c1 | inconclusive [inhibitor, partial curve] | –
Clc1ncccc1-c1nnn(-c2ccccc2)n1 | inconclusive [inhibitor, single point] | –
O=C(NCc1ccccc1Cl)c1ccc2c(=O)n(CCCN3CCCC3=O)c(=S)[nH]c2c1 | inconclusive [inhibitor, single point] | –
Cc1cc(S(=O)(=O)N2CCC3(CC2)OCCO3)c(C)cc1Cl | inactive | –
CCn1c2ccc(/C(C)=N\O)cc2c2cc(/C(C)=N\O)ccc21 | active: 10 µM | –
CC1(C2CC2)NC(=O)N(CC(=O)Nc2ccc(Cl)c([N+](=O)[O-])c2)C1=O (centres undefined) | inactive | –
Cc1ccc(C(=O)O)cc1[N+](=O)[O-] | inactive | –
Cn1c(=O)c2c(nc(NCc3ccco3)n2CC(O)COc2ccccc2)n(C)c1=O (centres undefined) | inconclusive [inhibitor, partial curve] | –

SMILES | Potency | activity change, negative = inhibition
CC(=O)c1ccc(OC(C)c2nc3ccccc3s2)cc1 (centres undefined) | inactive | –
CCCOc1ccc(N2C(=O)CC(N(CCc3ccc(OC)c(OC)c3)C(=O)c3ccccc3)C2=O)cc1 (centres undefined) | inconclusive [inhibitor, partial curve] | –
CN(C)c1ncnc2c1ccn2C1OC(CO)C(O)C1O (centres undefined) | inconclusive [inhibitor, full curve] | –
COc1ccc(OC)c(NC(=O)c2cc3sccc3n2C)c1 | inconclusive [inhibitor, single point] | –
O=c1c(CN2CCN(Cc3ccccc3)CC2)coc2ccc(Cl)cc12 | inconclusive [inhibitor, full curve] | –
COc1cccc(C(=O)Nc2ccc(NC(=O)c3cc4ccccc4o3)c(OC)c2)c1 | inconclusive [inhibitor, full curve, poor fit] | –
N/C(Cc1ccc(Cl)cc1)=N\OC(=O)c1cccc2ccccc12 | active: 7.08 µM | –
Cc1cc(-c2ccc(Br)s2)nc(-n2cccc2)n1 | active: 11.2 µM | –
Cc1ccc(C(c2c(O)nc3n(c2=O)CCS3)c2c(O)nc3n(c2=O)CCS3)cc1 | inactive | –
O=C(NCc1ccco1)c1ccc([N+](=O)[O-])o1 | inactive | –
CNS(=O)(=O)c1cccc(C(=O)OCC(=O)NC2CCCC2)c1 | inactive | –
C=C(C)c1cccc(C(C)(C)NC(=O)Nc2ccc(Cl)cn2)c1 | inconclusive [inhibitor, partial curve, poor fit] | –
COCCCN1C(=O)c2ccc(C(=O)NCc3ccccn3)cc2C1=O | inactive | –
O=C(CCC1CCCC1)NCCCN1CCOCC1 | inconclusive [inhibitor, partial curve, poor fit] | –
CC(C)c1nc(N2CCOCC2)c(C#N)c2c1CCCC2 | active: 7.08 µM | –
OC1CCCN(Cc2cn(Cc3ccccc3)nc2-c2cc3ccccc3o2)C1 (centres undefined) | inconclusive [inhibitor, partial curve, poor fit] | –
COc1ccc(N(CC(=O)NCc2cccc(OC)c2)S(=O)(=O)c2c(C)noc2C)cc1 | inactive | –
CCOCCCn1c(C)nc2c[n+](CC(=O)c3ccc4ccccc4c3)cc(Br)c21 | inactive | –
Cc1ccc(S(=O)(=O)c2c(N)n(/N=C/c3ccco3)c3nc4ccccc4nc23)cc1C | inconclusive [inhibitor, full curve, poor fit] | –
Cc1ccc2[nH]c(C(=O)N/N=C/c3ccc([N+](=O)[O-])cc3)c(C)c2c1 | inconclusive [inhibitor, single point] | –
CCOC(=O)c1ccccc1NC(=O)c1cc2sccc2n1C | inconclusive [inhibitor, single point] | –
Cc1nc(Nc2ccccc2)sc1C(=O)Nc1ccccc1 | inconclusive [inhibitor, single point] | –
CC(=O)Nc1ccc(-c2csc(N/N=C\c3ccncc3)n2)cc1 | inconclusive [inhibitor, single point] | –
COc1cccc(CNCc2ccccc2Br)c1OC | inconclusive [inhibitor, full curve, poor fit] | –
